Values belong to the binder of their own block, whether it stands above or below them.
Assays:
[1] = target: T1, recombinant human PD-L1 His protein (human, UniProt Q9NZQ7 in part); experiment: SPR affinity ranking, PD-L1/His as ligand on chip
T1 construct: not shown: His tag

[2] = target: T1, recombinant human PD-L1 His protein; experiment: SPR affinity ranking, PD-L1/His as ligand on chip; remark: listed apart in the source
[3] = target: T1, recombinant human PD-L1 His protein; experiment: SPR affinity ranking, PD-L1/His as ligand on chip; remark: listed apart in the source
[4] = target: T1, recombinant human PD-L1 His protein; experiment: SPR Biacore T200, PD-L1 His on chip, HCAb analyte
Procedure: (§1) Association and dissociation phases were 5 and 10 min, respectively. The chip was regenerated using Glycine/HCl pH 1.5.

[5] = target: human PD-L1 on CHO-K1 cells (human, UniProt Q9NZQ7); experiment: cell-based or functional assay
[6] = target: T1, recombinant human PD-L1 His protein; experiment: SPR Biacore T200, HCAb captured by anti-human IgG, PD-L1 His analyte
Procedure: as §1

T1 sequence (Q9NZQ7 19-239 limits assumed): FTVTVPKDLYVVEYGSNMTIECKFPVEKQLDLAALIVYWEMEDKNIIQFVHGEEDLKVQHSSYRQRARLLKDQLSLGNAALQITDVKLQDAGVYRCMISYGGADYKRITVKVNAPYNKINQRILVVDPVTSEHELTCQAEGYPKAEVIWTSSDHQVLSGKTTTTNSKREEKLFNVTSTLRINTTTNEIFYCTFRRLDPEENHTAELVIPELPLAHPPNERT

B1: AS06730QVH1 HCAb (Fc fusion)
chain: EVQLVESGGGLVQPGGSLRLSCAASGRTFITYAIGWVRQAPGKGLEWVSAIQWSGSMTSYADSVKGRFTISRDNSKNTLYLQMNSLRAEDTAVYYCAKHRGAIAPIAQSVYTNWGQGTLVTVSS[skipping human IgG1 Fc]
notes: humanized HCAb: sdAb fused with human Fc region
- Kd [1]: 2.24 nM
- koff [1]: 0.00579 s⁻¹
- kon [1]: 2.58e+06 M⁻¹ s⁻¹

B4: AS06750VH1 HCAb (Fc fusion)
chain: EVQLVESGGGLVQPGGSLRLSCAASGRTFLTYAVGWVRQAPGKGLEWVSGIRWSGGYTDYADSVKGRFTISRDNSKNTLYLQMNSLRAEDTAVYYCAKHRTIATIPEKYEYEYWGQGTLVTVSS[skipping human IgG1 Fc]
notes: as for B1
- Kd [3]: 35.7 nM
- koff [3]: 0.00253 s⁻¹
- kon [3]: 70800 M⁻¹ s⁻¹

B16: AS06730A HCAb (Fc fusion)
chain: QVQLVESGGGLVQAGGSLRLSCAASGRTFITYAIGWFRQAPGKEREFVSAIAWSGSMTSYADSVKGRFTISRDNAKNTVYLQMNGLKPEDTAVYYCAAHRGAIAPIAQSVYTNWGQGTQVTVSS[skipping human IgG1 Fc]
notes: variant HCAb: sdAb fused with human Fc region
- Kd [1]: 34.6 nM
- koff [1]: 0.0241 s⁻¹
- kon [1]: 696000 M⁻¹ s⁻¹

B17: AS06730S HCAb (Fc fusion)
chain: QVQLVESGGGLVQAGGSLRLSCAASGRTFITYAIGWFRQAPGKEREFVSAISWSGSMTSYADSVKGRFTISRDNAKNTVYLQMNGLKPEDTAVYYCAAHRGAIAPIAQSVYTNWGQGTQVTVSS[skipping human IgG1 Fc]
notes: as for B16
- Kd [1]: 2.51 nM
- koff [1]: 0.000573 s⁻¹
- kon [1]: 229000 M⁻¹ s⁻¹
- Kd [4]: 4.9 nM
- koff [4]: 0.00035 s⁻¹
- kon [4]: 71000 M⁻¹ s⁻¹
- EC50 of PD-L1-based blockade assay (luciferase reporter) [5]: 2.54 nM

B18: AS06730QVH2 HCAb (Fc fusion)
chain: EVQLVESGGGLVQPGGSLRLSCAASGRTFITYAIGWFRQAPGKGLEWVSAIQWSGSMTSYADSVKGRFTISRDNSKNTVYLQMNSLRAEDTAVYYCAAHRGAIAPIAQSVYTNWGQGTLVTVSS[skipping human IgG1 Fc]
notes: as for B1
- Kd [1]: 4.14 nM
- koff [1]: 0.00219 s⁻¹
- kon [1]: 530000 M⁻¹ s⁻¹

B19: AS06730SVH12M8 HCAb (Fc fusion)
chain: EVQLVESGGGLVQPGGSLRLSCAASGRTFITYAIGWFRQAPGKGREFVSAISWSGSITSYADSVKGRFTISRDNAKNTLYLQMNSLRPEDTAVYYCAAHRGAIAPIAQSVYTNWGQGTLVTVSS[skipping human IgG1 Fc]
notes: as for B1
- Kd [6]: 18 nM
- koff [6]: 0.0065 s⁻¹
- kon [6]: 360000 M⁻¹ s⁻¹
- Kd [1]: 21 nM
- koff [1]: 0.0065 s⁻¹
- kon [1]: 310000 M⁻¹ s⁻¹

B20: AS06730Q HCAb (Fc fusion)
chain: QVQLVESGGGLVQAGGSLRLSCAASGRTFITYAIGWFRQAPGKEREFVSAIQWSGSMTSYADSVKGRFTISRDNAKNTVYLQMNGLKPEDTAVYYCAAHRGAIAPIAQSVYTNWGQGTQVTVSS[skipping human IgG1 Fc]
notes: as for B16
- Kd [1]: 3.21 nM

B21: AS06730QVH3a HCAb (Fc fusion)
chain: EVQLVESGGGLVQPGGSLRLSCAASGRTFITYAIGWFRQAPGKGLEFVSAIQWSGSMTSYADSVKGRFTISRDNSKNTVYLQMNSLRAEDTAVYYCAAHRGAIAPIAQSVYTNWGQGTLVTVSS[skipping human IgG1 Fc]
notes: as for B1
- Kd [1]: 91.4 nM
- koff [1]: 0.212 s⁻¹
- kon [1]: 2.32e+06 M⁻¹ s⁻¹

B22: AS06730SVH12M9 HCAb (Fc fusion)
chain: EVQLVESGGGLVQPGGSLRLSCAASGRTFITYAIGWFRQAPGKGREFVSAISWSGSLTSYADSVKGRFTISRDNAKNTLYLQMNSLRPEDTAVYYCAAHRGAIAPIAQSVYTNWGQGTLVTVSS[skipping human IgG1 Fc]
notes: as for B1
- Kd [6]: 30 nM
- koff [6]: 0.012 s⁻¹
- kon [6]: 400000 M⁻¹ s⁻¹
- Kd [1]: 37 nM
- koff [1]: 0.012 s⁻¹
- kon [1]: 320000 M⁻¹ s⁻¹

Other lines, results leading:

- Kd [2]: 2.41 nM
- koff [2]: 0.000799 s⁻¹
- kon [2]: 332000 M⁻¹ s⁻¹
B2: AS11948QVH1 HCAb (Fc fusion)
chain: EVQLVESGGGLVQPGGSLRLSCAASGRTFVTYGMGWVRQAPGKGLEWVSAIQWSGSMTSYGDSVKGRFTISRDNSKNTLYLQMNSLRAEDTAVYYCAKALGAVVYTTREPYTYWGQGTLVTVSS[skipping human IgG1 Fc]
notes: as for B1

- Kd [3]: 1.55 nM
- koff [3]: 0.000329 s⁻¹
- kon [3]: 212000 M⁻¹ s⁻¹
- Kd [4]: 1.7 nM
- koff [4]: 0.00033 s⁻¹
- kon [4]: 200000 M⁻¹ s⁻¹
- EC50 of PD-L1-based blockade assay (luciferase reporter) [5]: 4.44 nM
B3: AS06750VH2 HCAb (Fc fusion)
chain: EVQLVESGGGLVQPGGSLRLSCAASGRTFLTYAVGWFRQAPGKGLEWVAGIRWSGGYTDYADSVKGRFTISRDNSKNTVYLQMNSLRAEDTAVYYCAAHRTIATIPEKYEYEYWGQGTLVTVSS[skipping human IgG1 Fc]
notes: as for B1

- Kd [3]: 1.75 nM
- koff [3]: 0.000355 s⁻¹
- kon [3]: 202000 M⁻¹ s⁻¹
B5: AS06750VH3 HCAb (Fc fusion)
chain: EVQLVESGGGLVQPGGSLRLSCAASGRTFLTYAVGWFRQAPGKGLEFVAGIRWSGGYTDYADSVKGRFTISRDNSKNTVYLQMNSLRAEDTAVYYCAAHRTIATIPEKYEYEYWGQGTLVTVSS[skipping human IgG1 Fc]
notes: as for B1

- Kd [3]: 1.63 nM
- koff [3]: 0.000308 s⁻¹
- kon [3]: 189000 M⁻¹ s⁻¹
B6: AS06750VHa HCAb (Fc fusion)
chain: EVQLVESGGGLVQPGGSLRLSCTASGRTFLTYAVGWFRQAPGKGLEFVAGIRWSGGYTDYADSVKGRFTISRDNSKNTVYLQMNSLRAEDTAVYYCAAHRTIATIPEKYEYEYWGQGTLVTVSS[skipping human IgG1 Fc]
notes: as for B1

- Kd [3]: 1.9 nM
- koff [3]: 0.00027 s⁻¹
- kon [3]: 140000 M⁻¹ s⁻¹
- Kd [4]: 3.2 nM
- koff [4]: 0.0003 s⁻¹
- kon [4]: 95000 M⁻¹ s⁻¹
- EC50 of PD-L1-based blockade assay (luciferase reporter) [5]: 3.61 nM
B7: AS06750VH11 HCAb (Fc fusion)
chain: EVQLVESGGGLVQPGGSLRLSCAASGRTFLTYAVGWFRQAPGKGREFVSGIRWSGGYTDYADSVKGRFTISRDNAKNTLYLQMNSLRPEDTAVYYCAAHRTIATIPEKYEYEYWGQGTLVTVSS[skipping human IgG1 Fc]
notes: as for B1

- Kd [2]: 95.5 nM
- koff [2]: 0.196 s⁻¹
- kon [2]: 2.05e+06 M⁻¹ s⁻¹
B8: AS11948A HCAb (Fc fusion)
chain: EVQLVESGGGLVQAGDSLRLSCVASGRTFVTYGMGWFRQAPGKEREFVAAIAWSGSMTSYGDSVKGRFAISRDNAKNTVYLQMNSLKPEDTAVYYCAAALGAVVYTTREPYTYWGRGTQVTVSS[skipping human IgG1 Fc]
notes: as for B16

- Kd [6]: 22 nM
- koff [6]: 0.0095 s⁻¹
- kon [6]: 430000 M⁻¹ s⁻¹
- EC50 of PD-L1-based blockade assay (luciferase reporter) [5]: 7.86 nM
- Kd [2]: 22 nM
- koff [2]: 0.0095 s⁻¹
- kon [2]: 430000 M⁻¹ s⁻¹
B9: AS11948SVH12M8 HCAb (Fc fusion)
chain: EVQLVESGGGLVQPGGSLRLSCAASGRTFVTYGMGWFRQAPGKGREFVSAISWSGSITSYGDSVKGRFTISRDNAKNTLYLQMNSLRPEDTAVYYCAAALGAVVYTTREPYTYWGQGTLVTVSS[skipping human IgG1 Fc]
notes: humanized HCAb: sdAb fused with human Fc region; also called AS11948VH12M8 HCAb; AS11948SV12M8

- Kd [2]: 155 nM
- koff [2]: 0.0465 s⁻¹
- kon [2]: 301000 M⁻¹ s⁻¹
B10: AS11948Q HCAb (Fc fusion)
chain: EVQLVESGGGLVQAGDSLRLSCVASGRTFVTYGMGWFRQAPGKEREFVAAIQWSGSMTSYGDSVKGRFAISRDNAKNTVYLQMNSLKPEDTAVYYCAAALGAVVYTTREPYTYWGRGTQVTVSS[skipping human IgG1 Fc]
notes: as for B16

- Kd [2]: 10.6 nM
B11: AS11948QVHa HCAb (Fc fusion)
chain: EVQLVESGGGLVQPGGSLRLSCVASGRTFVTYGMGWFRQAPGKGREFVSAIQWSGSMTSYGDSVKGRFTISRDNSKNTVYLQMNSLRAEDTAVYYCAAALGAVVYTTREPYTYWGQGTLVTVSS[skipping human IgG1 Fc]
notes: as for B1

- Kd [6]: 3.7 nM
- koff [6]: 0.0015 s⁻¹
- kon [6]: 400000 M⁻¹ s⁻¹
- EC50 of PD-L1-based blockade assay (luciferase reporter) [5]: 2.91 nM
- Kd [2]: 3.7 nM
- koff [2]: 0.0015 s⁻¹
- kon [2]: 400000 M⁻¹ s⁻¹
B12: AS11948SVH12 HCAb (Fc fusion)
chain: EVQLVESGGGLVQPGGSLRLSCAASGRTFVTYGMGWFRQAPGKGREFVSAISWSGSMTSYGDSVKGRFTISRDNAKNTLYLQMNSLRPEDTAVYYCAAALGAVVYTTREPYTYWGQGTLVTVSS[skipping human IgG1 Fc]
notes: humanized HCAb: sdAb fused with human Fc region; also called AS11948VH12 HCAb; AS11948SV12

- Kd [6]: 16 nM
- koff [6]: 0.0063 s⁻¹
- kon [6]: 400000 M⁻¹ s⁻¹
- Kd [2]: 16 nM
- koff [2]: 0.0063 s⁻¹
- kon [2]: 400000 M⁻¹ s⁻¹
B13: AS11948SVH12M9 HCAb (Fc fusion)
chain: EVQLVESGGGLVQPGGSLRLSCAASGRTFVTYGMGWFRQAPGKGREFVSAISWSGSLTSYGDSVKGRFTISRDNAKNTLYLQMNSLRPEDTAVYYCAAALGAVVYTTREPYTYWGQGTLVTVSS[skipping human IgG1 Fc]
notes: humanized HCAb: sdAb fused with human Fc region; also called AS11948SV12M9

- Kd [4]: 3.8 nM
- koff [4]: 0.0011 s⁻¹
- kon [4]: 290000 M⁻¹ s⁻¹
- EC50 of PD-L1-based blockade assay (luciferase reporter) [5]: 3.28 nM
- Kd [2]: 3.8 nM
- koff [2]: 0.000861 s⁻¹
- kon [2]: 226000 M⁻¹ s⁻¹
B14: AS11948S HCAb (Fc fusion)
chain: EVQLVESGGGLVQAGDSLRLSCVASGRTFVTYGMGWFRQAPGKEREFVAAISWSGSMTSYGDSVKGRFAISRDNAKNTVYLQMNSLKPEDTAVYYCAAALGAVVYTTREPYTYWGRGTQVTVSS[skipping human IgG1 Fc]
notes: as for B16

- Kd [2]: 89.8 nM
- koff [2]: 0.195 s⁻¹
- kon [2]: 2.17e+06 M⁻¹ s⁻¹
B15: AS11948QVH2 HCAb (Fc fusion)
chain: EVQLVESGGGLVQPGGSLRLSCAASGRTFVTYGMGWFRQAPGKGLEFVAAIQWSGSMTSYGDSVKGRFTISRDNSKNTVYLQMNSLRAEDTAVYYCAAALGAVVYTTREPYTYWGQGTLVTVSS[skipping human IgG1 Fc]
notes: as for B1
